Laboratory results taken from PubChem BioAssay AID1347165 (National Center for Advancing Translational Sciences (NCATS), 2019).
Screen size: about 220,000 compounds; about 5,700 (2.6%) were called active. Inconclusive results, whose numbers are uncertain, are shown with a selection of clear calls. The call rests on the fitted dose curve; in most records, active means well fitted inhibition curve with a large enough effect; inconclusive means small, poorly fitted or top-dose-only effect; inactive means no such curve, though single readings can be large or run the other way. Potencies beside an inconclusive call are fits to weak or partial responses and may not hold up.
Further: nearly all actives have a fitted effect of over 70% in size.
Potency means the concentration at half of the fitted maximal effect; tags describe the fitted curve by direction and shape.
Wherever activity change, negative = inhibition is given: 0% is about no effect.

What follows are molecules tested against Lysine-specific demethylase 5B (Homo sapiens) (UniProt Q9UGL1) (assay: Primary screen for KDM5B Histone Demethylases FDH-coupled qHTS). Settings: FDH-coupled NADH fluorescence (FDH is formaldehyde dehydrogenase); activity change, negative = inhibition: at 57.7 µM (top of the series) unless noted.
Chain of UniProt Q9UGL1 (Q9UGL1 whole entry, looked up): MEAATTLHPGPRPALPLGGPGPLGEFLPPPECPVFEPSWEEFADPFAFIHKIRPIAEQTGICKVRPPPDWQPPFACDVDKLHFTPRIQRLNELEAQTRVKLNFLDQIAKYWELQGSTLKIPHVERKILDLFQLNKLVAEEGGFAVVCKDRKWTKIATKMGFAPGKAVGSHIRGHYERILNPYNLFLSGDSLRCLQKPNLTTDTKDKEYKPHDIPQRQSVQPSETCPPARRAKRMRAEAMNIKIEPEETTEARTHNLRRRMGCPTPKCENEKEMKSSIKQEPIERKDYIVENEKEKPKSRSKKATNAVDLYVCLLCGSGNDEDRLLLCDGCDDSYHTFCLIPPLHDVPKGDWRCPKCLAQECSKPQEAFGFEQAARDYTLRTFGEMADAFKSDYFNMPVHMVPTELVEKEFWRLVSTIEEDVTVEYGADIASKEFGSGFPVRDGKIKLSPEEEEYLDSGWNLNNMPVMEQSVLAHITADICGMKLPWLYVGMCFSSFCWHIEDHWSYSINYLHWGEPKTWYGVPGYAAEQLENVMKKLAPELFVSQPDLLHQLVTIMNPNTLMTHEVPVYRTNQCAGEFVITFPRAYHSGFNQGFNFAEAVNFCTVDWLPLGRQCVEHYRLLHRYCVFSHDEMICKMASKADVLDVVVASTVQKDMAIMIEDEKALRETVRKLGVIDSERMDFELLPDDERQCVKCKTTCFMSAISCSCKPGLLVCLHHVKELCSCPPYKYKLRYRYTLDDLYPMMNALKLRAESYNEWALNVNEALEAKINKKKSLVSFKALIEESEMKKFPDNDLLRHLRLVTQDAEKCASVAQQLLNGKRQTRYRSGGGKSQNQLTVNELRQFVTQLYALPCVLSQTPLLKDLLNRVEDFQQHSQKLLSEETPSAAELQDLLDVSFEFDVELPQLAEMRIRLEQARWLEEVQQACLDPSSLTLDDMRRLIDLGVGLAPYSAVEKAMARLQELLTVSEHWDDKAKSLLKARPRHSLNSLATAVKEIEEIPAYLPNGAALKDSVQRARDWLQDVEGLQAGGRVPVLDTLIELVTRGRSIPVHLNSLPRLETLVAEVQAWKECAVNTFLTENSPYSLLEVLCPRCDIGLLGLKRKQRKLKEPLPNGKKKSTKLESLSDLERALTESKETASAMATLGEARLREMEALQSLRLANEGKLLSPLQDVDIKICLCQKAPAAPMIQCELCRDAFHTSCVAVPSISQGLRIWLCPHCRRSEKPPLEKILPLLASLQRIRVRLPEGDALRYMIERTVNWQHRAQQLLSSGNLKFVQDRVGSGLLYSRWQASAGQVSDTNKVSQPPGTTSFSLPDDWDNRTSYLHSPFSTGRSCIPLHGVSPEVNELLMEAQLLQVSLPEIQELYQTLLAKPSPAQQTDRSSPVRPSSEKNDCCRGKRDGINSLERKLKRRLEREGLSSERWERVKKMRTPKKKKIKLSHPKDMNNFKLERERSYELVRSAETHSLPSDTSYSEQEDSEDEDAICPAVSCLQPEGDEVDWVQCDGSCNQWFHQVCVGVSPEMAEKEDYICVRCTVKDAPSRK
Summary of the method: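 Compound dilutions met 200 nM (final) KDM5BΔAP for 10 min at room temperature before substrate addition. The substrate mix held 12.5 µM H3K4me3 with cofactors 25 µM α-ketoglutarate and 50 µM Fe²⁺. NADH signal gain over 30 min defined activity.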
In the case of `CC(Oc1ccccc1)C(=O)N1CC(Oc2cccc(-c3nc(-c4ccccc4)no3)c2)C1` (stereo not drawn), the Potency is reported as active: 22.4 µM. `O=C(COc1ccccc1)Nc1ccc(OCc2cc(=O)n3ccsc3n2)cc1` was tested, and the Potency was “inactive”. With `Cc1cc(N2CCCCC2)nc2ccc(NC(=O)c3ccc(F)cc3)cc12` the Potency was inconclusive: 35.5 µM [inhibitor, partial curve, poor fit]. In the case of `O=C(NCCN1CCCCC1)c1cc2cn(C3CCCC3)cc2s1`, the Potency is reported as inconclusive: 10 µM [inhibitor, partial curve]. For `Cc1nc(C(F)(F)F)nc(N2CCOC(c3ccc(F)cc3)C2)c1C` (stereo not drawn), the Potency was inconclusive: 11.2 µM [inhibitor, partial curve, poor fit]. `Cc1ccc(S(=O)Cc2nc(-c3ccc(C(=O)NCCCN4CCOCC4)cc3)oc2C)cc1` (stereo not drawn) was tested, and the Potency was “inactive”. `O=C(c1ccc(Cl)cc1Cl)N(CCS(=O)(=O)N1CCCC1)Cc1cccnc1` was tested, and the Potency was inconclusive: 20 µM [inhibitor, partial curve, poor fit]. With `COc1ccc(C(c2c(O)cc(C)n(Cc3ccco3)c2=O)N2CCN(c3ccccc3)CC2)cc1` (stereo not drawn) the Potency was inconclusive: 44.7 µM [inhibitor, single point]. In the case of `O=C(NCCc1ccco1)C1CC(=O)N(c2n[nH]c3cc(Br)ccc23)C1` (stereo not drawn), the Potency is reported as inconclusive: 17.8 µM [inhibitor, single point]. `COc1ccc(Cl)cc1NC(=O)C1CCN(c2ncnc3c2nc2n3CCCCC2)CC1` was tested, and the activity change, negative = inhibition was inconclusive: -38.8% [inhibitor] [at 11.5 µM]. With `O=c1[nH]c(CN2CCCn3nc(CO)cc3C2)nc2ccsc12` the Potency was “inactive”. With `CN(C)c1ccc(-c2nnc([C@H]3CCN(C(=O)CCC(=O)O)C3)o2)cc1` the Potency was inconclusive: 28.2 µM [inhibitor, partial curve]. `CC(=O)Nc1ccc(C(=O)CN2CCN(c3ccccc3)CC2)cc1` was tested, and the Potency was inconclusive: 22.4 µM [inhibitor, partial curve, poor fit]. For `Cc1ccc2nc([C@H]3CCN(C(=O)c4ccccc4)C3)[nH]c2c1`, the Potency was “inactive”. `CCCCN(C)CCNC(=O)C1CCN(c2nc3ccc(CC)cc3s2)CC1` was tested, and the Potency was inconclusive: 39.8 µM [inhibitor, single point]. For `CCCn1c(=O)c2sc(N3CCCC3)nc2n(CC(=O)Nc2ccc3c(c2)OCO3)c1=O`, the Potency was “inactive”. With `Cc1cc(=O)oc2cc(OS(=O)(=O)/C=C/c3ccccc3)ccc12` the Potency was inconclusive: 39.8 µM [inhibitor, single point]. `Cc1oc2cc(OCC(N)=O)ccc2c(=O)c1Oc1ccc(-c2ccccc2)cc1` was tested, and the Potency was “inactive”. In the case of `Cc1cccc(CSc2cn(CC(=O)N3CCCCCC3)c3ccccc23)c1`, the Potency is reported as inconclusive: 28.2 µM [inhibitor, partial curve, poor fit]. For `O=C(c1cc(Cl)ccc1O)N1CCN(S(=O)(=O)c2ccccc2)CC1`, the Potency was “inactive”. For `CCc1cc(C2CCCN2S(=O)(=O)c2cc(C)c(C)cc2C)on1` (stereo not drawn), the Potency was “inactive”. In the case of `NC(=O)Cn1ccc2cc(OCC3CCN(C(=O)Oc4ccccc4Cl)CC3)cnc21`, the Potency is reported as active: 28.2 µM. `O=C(NCC1CCCO1)C(=O)N/N=C/c1cc(Cl)ccc1O` (stereo not drawn) was tested, and the Potency was inconclusive: 20 µM [inhibitor, partial curve, poor fit]. With `COc1ccc(-c2nn(-c3cc(C)ccc3C)c(OC(C)=O)c2-c2ccc(NC(C)=O)cc2)c(OC)c1` the Potency was inconclusive: 31.6 µM [inhibitor, partial curve, poor fit]. `CNC(=O)c1ccc(OC)c(-c2cc(N)nc3[nH]ccc23)c1` was tested, and the Potency was inconclusive: 25.1 µM [inhibitor, partial curve, poor fit]. For `COc1ccccc1-c1noc(-c2nc(C)no2)n1`, the Potency was inconclusive: 20 µM [inhibitor, single point]. For `COc1ccc(CC(=O)NCc2cc(C)cc3c(C)c(C)[nH]c23)c(OC)c1`, the Potency was inconclusive: 22.4 µM [inhibitor, partial curve, poor fit]. In the case of `COc1ccc(CN2CCCCCNC(=O)[C@@H]3CCC[C@@H]32)cc1Cn1ccnc1`, the Potency is reported as inconclusive: 10 µM [inhibitor, partial curve, poor fit]. For `O=Cc1ccc(OCc2ccccc2Cl)c(Cl)c1`, the Potency was inconclusive: 25.1 µM [inhibitor, partial curve, poor fit]. In the case of `CC(=O)N1CCN(c2nc(-c3c(C)noc3C)cc3c2cc(-c2ccccc2)n3C)CC1`, the Potency is reported as active: 39.8 µM. For `N#Cc1cccc(C#N)c1NCC1CCCO1` (stereo not drawn), the Potency was inconclusive: 28.2 µM [inhibitor, partial curve, poor fit]. In the case of `O=C(NCc1nnc2cc(-c3nc(C4CC4)no3)ccn12)c1ccc(F)c(F)c1`, the Potency is reported as active: 28.2 µM. For `Cc1ccc(Cn2c(=O)n(Cc3ccc(Cl)cc3)c(=O)c3cccnc32)cc1`, the Potency was inconclusive: 7.94 µM [inhibitor, partial curve, poor fit]. With `CN(C)C(=O)c1ccccc1Br` the Potency was “inactive”. In the case of `COCCCNC(=O)[C@@H]1Cc2cn(Cc3cc(C)on3)c3cccc(c23)[C@H](CC(C)C)N1`, the Potency is reported as inconclusive: 31.6 µM [inhibitor, single point]. `CCCCCc1ccc(C(=O)Cc2ccc(OCC)cc2)cc1` was tested, and the Potency was “inactive”. For `COc1cccc(CN2CCc3c(cc(C(=O)NCc4ccccn4)n3C)C2)c1`, the Potency was inconclusive: 25.1 µM [inhibitor, single point]. With `CNCc1ccncc1` the Potency was inconclusive: 14.1 µM [inhibitor, partial curve, poor fit]. `CCOc1ccc(-c2cnc(NCc3cccc(Cl)c3)n2C)cc1` was tested, and the Potency was inconclusive: 7.08 µM [inhibitor, partial curve, poor fit]. In the case of `CCN(CC)C(=O)COc1nc(-c2ccco2)c2c(c1C#N)CCC2`, the Potency is reported as “inactive”. For `Cc1ccc2nc(C(C)NC(=O)c3cnc(-c4ccccn4)[nH]c3=O)[nH]c2c1` (stereo not drawn), the Potency was inconclusive: 15.8 µM [inhibitor, partial curve, poor fit]. With `O=C(NCCN1CCN(C(=O)c2ccc(F)cc2)CC1)C(=O)NCc1ccccc1` the Potency was inconclusive: 35.5 µM [inhibitor, partial curve, poor fit]. `CCOc1ccc(C(=O)Nc2cccc3ncccc23)cc1` was tested, and the Potency was “inactive”.
